This note sets out measurements from paper PMC8473724.

By UniProt entry, the sequences of proteins in these tests, tags left out. Where a name states a change or a piece, a line headed by the entry shows the natural chain unless it says otherwise. Chains listed by the source or under a name are the forms on record and can include a tag or linker. Residues count along the entry.
Myc-tagged CD22 WT (P20273, residues 20-847): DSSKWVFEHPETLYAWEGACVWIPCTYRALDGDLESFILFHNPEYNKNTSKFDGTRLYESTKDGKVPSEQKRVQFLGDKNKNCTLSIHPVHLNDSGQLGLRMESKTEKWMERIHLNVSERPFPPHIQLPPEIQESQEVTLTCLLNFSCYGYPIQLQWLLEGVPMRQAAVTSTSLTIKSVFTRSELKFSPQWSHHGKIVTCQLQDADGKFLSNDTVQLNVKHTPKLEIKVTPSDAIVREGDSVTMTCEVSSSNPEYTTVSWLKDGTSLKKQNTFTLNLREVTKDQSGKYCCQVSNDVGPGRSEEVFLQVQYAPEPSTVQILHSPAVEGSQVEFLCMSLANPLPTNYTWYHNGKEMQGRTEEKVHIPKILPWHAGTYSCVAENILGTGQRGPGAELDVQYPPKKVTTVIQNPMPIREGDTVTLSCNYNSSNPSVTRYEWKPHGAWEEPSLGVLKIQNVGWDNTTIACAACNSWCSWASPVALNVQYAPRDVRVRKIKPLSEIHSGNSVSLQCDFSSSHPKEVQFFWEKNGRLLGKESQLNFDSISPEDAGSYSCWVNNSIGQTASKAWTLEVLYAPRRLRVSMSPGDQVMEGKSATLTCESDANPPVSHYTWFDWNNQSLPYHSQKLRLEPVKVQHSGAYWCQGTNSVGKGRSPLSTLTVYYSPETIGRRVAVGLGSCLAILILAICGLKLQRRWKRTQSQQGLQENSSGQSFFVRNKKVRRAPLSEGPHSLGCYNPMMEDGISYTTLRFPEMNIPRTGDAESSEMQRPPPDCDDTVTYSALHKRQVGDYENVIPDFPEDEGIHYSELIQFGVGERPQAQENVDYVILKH
Myc-tagged CD22-Y807F mutant (P20273, form named): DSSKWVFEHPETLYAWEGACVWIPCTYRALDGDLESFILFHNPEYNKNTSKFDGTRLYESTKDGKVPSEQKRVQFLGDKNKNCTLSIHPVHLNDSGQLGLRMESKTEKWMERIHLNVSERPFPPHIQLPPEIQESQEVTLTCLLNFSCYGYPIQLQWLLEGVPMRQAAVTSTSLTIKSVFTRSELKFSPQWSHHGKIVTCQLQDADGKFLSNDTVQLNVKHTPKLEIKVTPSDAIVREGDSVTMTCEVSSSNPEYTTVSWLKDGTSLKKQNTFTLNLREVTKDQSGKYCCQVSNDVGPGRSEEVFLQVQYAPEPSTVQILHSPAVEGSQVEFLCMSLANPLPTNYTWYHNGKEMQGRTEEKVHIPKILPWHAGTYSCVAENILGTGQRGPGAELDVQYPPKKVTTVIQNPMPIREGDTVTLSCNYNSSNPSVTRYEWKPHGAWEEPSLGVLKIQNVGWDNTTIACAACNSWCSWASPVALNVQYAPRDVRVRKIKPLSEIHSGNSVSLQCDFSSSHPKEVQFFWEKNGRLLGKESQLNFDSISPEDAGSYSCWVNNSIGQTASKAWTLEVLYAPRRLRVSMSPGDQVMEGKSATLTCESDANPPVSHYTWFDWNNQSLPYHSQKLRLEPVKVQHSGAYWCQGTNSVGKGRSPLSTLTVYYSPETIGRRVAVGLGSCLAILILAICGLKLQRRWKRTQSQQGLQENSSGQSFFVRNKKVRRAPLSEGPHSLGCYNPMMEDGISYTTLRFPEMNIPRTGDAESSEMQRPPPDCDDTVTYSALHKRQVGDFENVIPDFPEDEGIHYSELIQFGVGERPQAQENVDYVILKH
UniProt P11912, residues 33-226: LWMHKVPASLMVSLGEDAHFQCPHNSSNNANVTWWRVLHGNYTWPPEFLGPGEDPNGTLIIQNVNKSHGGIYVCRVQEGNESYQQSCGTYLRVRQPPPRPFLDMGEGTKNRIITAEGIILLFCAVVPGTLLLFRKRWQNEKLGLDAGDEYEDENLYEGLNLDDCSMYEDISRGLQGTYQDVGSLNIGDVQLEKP
UniProt P62993: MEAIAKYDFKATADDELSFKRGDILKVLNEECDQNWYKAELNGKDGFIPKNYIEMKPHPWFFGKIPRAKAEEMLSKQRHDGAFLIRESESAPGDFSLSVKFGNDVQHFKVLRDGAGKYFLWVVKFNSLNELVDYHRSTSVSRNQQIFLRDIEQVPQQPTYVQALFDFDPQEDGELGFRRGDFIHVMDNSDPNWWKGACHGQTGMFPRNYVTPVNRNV
UniProt Q06481, residues 32-763: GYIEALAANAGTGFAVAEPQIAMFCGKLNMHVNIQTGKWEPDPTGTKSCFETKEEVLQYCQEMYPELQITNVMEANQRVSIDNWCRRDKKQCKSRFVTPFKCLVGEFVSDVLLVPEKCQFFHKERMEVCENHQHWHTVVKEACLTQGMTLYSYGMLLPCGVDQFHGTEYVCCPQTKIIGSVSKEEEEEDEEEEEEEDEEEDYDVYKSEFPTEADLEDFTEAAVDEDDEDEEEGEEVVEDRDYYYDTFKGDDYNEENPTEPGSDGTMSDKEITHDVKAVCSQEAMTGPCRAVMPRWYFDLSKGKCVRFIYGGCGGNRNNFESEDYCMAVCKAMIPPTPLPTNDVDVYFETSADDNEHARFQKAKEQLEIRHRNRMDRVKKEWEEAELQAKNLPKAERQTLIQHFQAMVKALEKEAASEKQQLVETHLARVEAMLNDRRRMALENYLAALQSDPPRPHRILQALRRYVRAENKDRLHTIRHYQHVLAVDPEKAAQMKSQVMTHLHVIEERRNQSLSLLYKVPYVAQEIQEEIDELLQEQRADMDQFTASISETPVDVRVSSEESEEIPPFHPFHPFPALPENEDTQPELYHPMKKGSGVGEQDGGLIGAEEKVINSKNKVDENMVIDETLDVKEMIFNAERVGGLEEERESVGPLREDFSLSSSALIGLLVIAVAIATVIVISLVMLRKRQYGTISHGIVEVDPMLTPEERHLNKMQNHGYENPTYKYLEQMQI
UniProt Q06187: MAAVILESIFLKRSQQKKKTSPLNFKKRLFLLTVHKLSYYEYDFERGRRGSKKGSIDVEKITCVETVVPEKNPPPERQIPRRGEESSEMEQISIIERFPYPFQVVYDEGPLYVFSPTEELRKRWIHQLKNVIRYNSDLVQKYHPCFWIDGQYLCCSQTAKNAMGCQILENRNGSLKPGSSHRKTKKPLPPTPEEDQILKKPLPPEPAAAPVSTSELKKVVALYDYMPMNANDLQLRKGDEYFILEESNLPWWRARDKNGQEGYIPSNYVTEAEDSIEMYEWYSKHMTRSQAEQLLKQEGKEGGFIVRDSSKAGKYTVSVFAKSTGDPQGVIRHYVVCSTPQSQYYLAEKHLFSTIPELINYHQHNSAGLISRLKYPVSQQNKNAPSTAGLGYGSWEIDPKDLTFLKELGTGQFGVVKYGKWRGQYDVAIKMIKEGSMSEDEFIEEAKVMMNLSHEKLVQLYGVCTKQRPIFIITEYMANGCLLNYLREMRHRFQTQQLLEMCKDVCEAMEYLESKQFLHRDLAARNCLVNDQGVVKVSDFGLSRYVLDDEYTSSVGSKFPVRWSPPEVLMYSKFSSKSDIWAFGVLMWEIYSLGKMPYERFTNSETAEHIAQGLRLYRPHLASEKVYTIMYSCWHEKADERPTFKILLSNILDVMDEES

In test [1] the target is T1, FLAG-PTP1B D181A-Y46F substrate trapping mutant (full-length) (UniProt P18031).
T1 sequence: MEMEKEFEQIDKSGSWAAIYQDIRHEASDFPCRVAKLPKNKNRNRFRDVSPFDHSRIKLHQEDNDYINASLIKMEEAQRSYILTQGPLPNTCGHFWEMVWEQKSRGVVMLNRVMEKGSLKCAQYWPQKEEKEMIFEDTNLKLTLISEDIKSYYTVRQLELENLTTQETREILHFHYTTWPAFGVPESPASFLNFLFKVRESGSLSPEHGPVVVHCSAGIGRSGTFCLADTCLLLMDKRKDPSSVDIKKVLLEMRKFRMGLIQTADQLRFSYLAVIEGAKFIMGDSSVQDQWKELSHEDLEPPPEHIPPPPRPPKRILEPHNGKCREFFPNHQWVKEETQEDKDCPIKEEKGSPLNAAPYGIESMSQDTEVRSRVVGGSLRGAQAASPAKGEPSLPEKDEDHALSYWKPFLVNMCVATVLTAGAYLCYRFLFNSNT
Kind of test: condition: only with 1 mM orthovanadate in the lysis buffer; co-IP; as the anti-FLAG co-IP, but cells lysed in the presence of 1 mM orthovanadate, which competes for binding at the catalytic centre; immunoblot.

Test [2] addresses T1, FLAG-PTP1B D181A-Y46F substrate trapping mutant (full-length). Kind of test: co-IP; anti-FLAG M2 magnetic beads, lysates of PTP1B KO Ramos cells with inducible FLAG-PTP1B WT or trapping mutants; lysis buffer 50 mM Tris-HCl pH 8.5, 137.5 mM NaCl, 1 mM EDTA, 1% Triton X-100; 2-4 h at 8°C; immunoblot of endogenous partners; no orthovanadate. For orientation: A western blot detects proteins with antibodies after separation by electrophoresis.

For test [3], the target named is T2, FLAG-PTP1B D181A-Y46F Δ406-435 (truncated trapping mutant without the ER-targeting domain) (UniProt P18031).
T2 sequence: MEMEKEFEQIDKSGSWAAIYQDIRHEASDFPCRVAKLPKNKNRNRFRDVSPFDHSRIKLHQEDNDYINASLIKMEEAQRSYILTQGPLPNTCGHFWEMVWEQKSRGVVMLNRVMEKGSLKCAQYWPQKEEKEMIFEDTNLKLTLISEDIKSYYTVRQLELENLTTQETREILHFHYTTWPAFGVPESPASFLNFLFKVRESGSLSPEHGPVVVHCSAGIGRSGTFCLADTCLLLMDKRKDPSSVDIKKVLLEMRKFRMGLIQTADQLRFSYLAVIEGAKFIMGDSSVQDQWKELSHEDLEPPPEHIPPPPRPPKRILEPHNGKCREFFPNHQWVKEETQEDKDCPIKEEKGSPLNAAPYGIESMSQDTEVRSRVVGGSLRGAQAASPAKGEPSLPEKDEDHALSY
The test is described as above.

For test [4], the target named is Myc-tagged CD22 WT (human) (UniProt P20273). Kind of test: co-IP; anti-Myc co-IP of C-terminally Myc-tagged CD22 WT or Y-to-F mutants from PTP1B KO Ramos cells with induced FLAG-PTP1B-D181A-Y46F; immunoblot with anti-FLAG (n = 3) and anti-GRB2 (n = 1).
The target in test [5] is Myc-tagged CD22-Y807F mutant (human) (UniProt P20273). The description is as above.
Test [6] deals with T3, PTP1B, endogenous in Ramos B cells (human (endogenous in Ramos)) (UniProt P18031).
T3 sequence: T1 sequence with F46Y, A181D
As to the kind of experiment: proximity ligation; in situ PLA in fixed, permeabilised WT against PTP1B KO Ramos B cells; probes from anti-PTP1B and anti-Igα Fab, anti-CD22 or anti-APLP2; dots per cell.

The target in test [7] is T4, FLAG-PTP1B WT (protein tyrosine phosphatase 1B) (UniProt P18031).
T4 sequence: T1 sequence with F46Y, A181D
Kind of test: co-IP; anti-FLAG M2 magnetic beads, lysates of PTP1B KO Ramos cells with inducible FLAG-PTP1B WT or trapping mutants; lysis buffer 50 mM Tris-HCl pH 8.5, 137.5 mM NaCl, 1 mM EDTA, 1% Triton X-100; 2-4 h at 8°C; immunoblot of endogenous partners; no orthovanadate.

Test [8] concerns the target T1, FLAG-PTP1B D181A-Y46F substrate trapping mutant (full-length). As to the kind of experiment: co-IP; as the anti-FLAG co-IP, but cells lysed in the presence of 1 mM orthovanadate, which competes for binding at the catalytic centre; immunoblot.

Positions count from the first letter of the chain named. These are yes or no findings as the source states them, for the method shown. Binding seen in cells or lysates may run through a third protein. Some entries that bind do so weakly or less than the wild type. For part of these data: Sequences can lack the tags named with a protein.

Take “Igα (CD79A), BCR signaling subunit α chain (from UniProt P11912 33-226) (receptor)”: the binding entry in test [1] was “no binding”; in test [2], “binds”; in test [3], “no binding”.

On to “CD22 (cluster of differentiation-22), endogenous (from UniProt P20273 20-847) (receptor)”, for which the values for the binding entry in test [1], in test [2] and in test [3] were “no binding”, “binds” and “no binding”, respectively.

As for “growth factor receptor-bound protein 2 (GRB2) (from UniProt P62993 1-217)”, the binding result in test [4] is on record as “binds”; in test [5] it was “no binding”.

As to “amyloid-like protein 2 (APLP2) (from UniProt Q06481 32-763)”, the binding entry in test [6], in test [2], in test [3] and in test [7] was “binds” throughout.

Take “Bruton tyrosine kinase (BTK) (from UniProt Q06187 1-659) (enzyme)”: the binding entry in test [8], in test [2] and in test [7] was “binds” in each case.
